Results reported in the RNAGym collection of RNA variant scans (doi:10.7554/elife.90254).
Read counts are not given, so values of variants with three or more changes are uncertain.

B1: LINE1-mini (parent)
chain: GGCAGAGCUCAACACAGCGUGGCAAAGUGGCUGUGGCUAGACUGCC

Variants of: B1
Test: self-cleavage, relative activity (ratio to wild type); higher = more cleavage; in vitro, sequencing; the parent is a self-cleaving ribozyme

Row | Variant | self-cleavage
1 | GGCAGUGCUCAACACAGCGUGAGAAAAUGGCUGUGGCUAGACUGCC | 0.47
2 | UGCAGAGCUCAACACAGCGUGGCAAAGUAGCUGUGGCUAGACUGAC | 0.28
3 | GUCAGAGCGCAACACAGCGUGGCAAAGUGGCUGUGGCUAGACUGAC | 0.05
4 | GGCAGAGCUCGCUACAACGUGGCAAAGUGGCUGUGGCUAGACUACC | 0
5 | GGCAGAUCUCAACACAGCUUGGCAAAGUGGCGGUGGCUAGACUGCC | 1.05
6 | GGCAGAGGUCAGCACAGCGUGGCAAAAUGGCAGUGGCUAGACUCCC | 0.02
7 | GGCAGCGCUCAACAUAUCGUGGCAAAGUGGCUGUGGCUAGACUGCC | 0.25
8 | GGCAGACCUCAACAAAUGGUGGCAAAGUGGCUGUGGCUACACUCCC | 0.1
9 | GGCAGACCUCAAGACAGCGUGGCAAUGUGGCUGUGGCUAGACUGCC | 0.08
10 | GGCAGAGCUCAACACAGCGUGGCAUCGUGUCUGUGGCUAGACUGCC | 0.64
11 | GGCACAACUCAACACAGCGUGGCAAAUUGGCUGUGGAUAGACUGCC | 0.17
12 | AGCAGAGCUCAACACAGAGUGGCGAAGUGGCUGUGGCUAGACUGCC | 0.09
13 | GGCAGUGCUCAACAAAGCGUGCCAAAGUGGCUGCGGCUAGACUGCC | 0.07
14 | GGUAUAGCUCAACACAGCGUUGCAAAGUGGCUGAGGCUAGACUGCC | 0
15 | GGCAAAGUACAACUCAGCGUGGCAAAGUGGCUGUGGCUAUACUGCC | 0.09
16 | GGCAGUGCUCAACACAGCGCGUCAAAGUUGCUGUGGCUAGACUGCC | 0.21
17 | GGCAUAGCUCAACACAGUGUGACAGAGAGGUUGUGGCUAGACUCCC | 0.01
18 | GGCAGAGUUCCACACAGCGUGGCAAAGUGGCUGUGGCUACACUGCC | 0.04
19 | GGCAGAGCUCAACAAACCGUGGCAUAGUGGCUGUGGUUAGACUGCC | 0.15
20 | GCCAGAGCUCAACACAGCGUGGCAUAGUGGCGGUGGCUAGACUGCC | 0.06
21 | GGCAGAGCUUAACACAGCGUGGCUAAGUGGCGGUCGCUAGACUGCC | 0.08
22 | GGCAUAGCCCAACACAGCGUGGCAAAGUGGCUGUGGCUAGACUGCG | 0.03
23 | GGCAGGGCUAAACACAGCGUGGCAAAAUGGCUGUGGCUAGACUACC | 0.14

Row | Variant | self-cleavage
24 | GGCAGGGCUCGAAACAGCGUGGCAAAGUGGCUGUGGCUAGGCUACC | 0.02
25 | GGCAGAGCUCUACAAAGCGUGGCAAAGUGGCUGUGGCUACACUGCC | 0.01
26 | GGCGGAGCUCAAUACACCGUGGCAAAGUGCCUGUGGCUAGACUGAC | 0.03
27 | GACAGAGCUCAACACAUCGUGGCAAAGUGGCUGUGGCUACACUGCC | 0.24
28 | GGCAGAGUUCAGCACAGCGUGUCAAAGUGGCUGGGGCUAGACUGCC | 0.11
29 | GGCAGAGCUCAACAAAGCGCAGCAAAGUGGCUGUGGCUAGACUGCC | 0.07
30 | GGCAAAGCUCAACACAGCGUGGCAAAGUGGCUGUGGCUAUACCGCC | 0.03
31 | GGCAGACCACAAAACAGCGUGGCACAGUGGCUGUGGCUAGACUGCC | 0.07
32 | GGGAGAGUUCAACACAGCUUGGCAAAGUGACUGUGGCUAGACUGCC | 0.36
33 | GGAAGAGCUCAACACAGCGUAGCAAAGUGGCUGUGGCUAGAUUGCC | 2.34
34 | GGUAGAGCUCAACACAUAGUGGCAAAGUGGCUGUGGCUAGACUGCC | 0.05
35 | GGCAGAGCUCAACACAGAAUGGCAAAGUGGCUGUGGCUAGACUGAC | 0.33
36 | GGCUGGGCUCAACAGAGCGUGGCAAAGUGGCUGUCGCUAGACUGCC | 0.03
37 | GGCAGAGCUCAACACUGCGUGGCAAAGUGGCUGUGGCUACAAUGCA | 0.03
38 | GUCAGUGCUCAACACAGUGUGACAAAGUGGCUGUGGCUAGACUGCC | 0.23
39 | GCCCGUGCUCAACAGAGCGUGGCAUAGUGGCUGUGGCUAGACUGCC | 0.02
40 | GGCAGAGCUCAACACAGAGUGGCAAAGUGGCUGUGCAUAGACUGCC | 0.03
41 | GGCAGAGCUCAACACGGCGAGGCAAAGUGGCUGUGGCUAGACUGUC | 0.07
42 | GGCAGAGCUCAACACAGCGUGGCAAAGUGGCUGUGGUUAUUCUGCG | 0.09
43 | UGCAGAGCUCAACACCGCGUGGCAAAGUGGUUGUGGCUAGACUGCC | 0.03
44 | GGCAGAGCUCAACACAGCGGGGCAAAUUGGCUGUGGCUAGACCGCC | 0.13
45 | GGCAGAGUUCAACACAGCGUGGCAAAGGGGGUGUGGCUAGACUCCC | 0.01
46 | GGAAGAGCUCAACAUAUCGUGGCAAAGUGGCUGUGGCUUGACUGCC | 0.09

Row | Variant | self-cleavage
47 | UGCAGAGCUCCACACAGCGUGGAAAAGUGGCUGUGGCUAGACUGCC | 0.02
48 | GGCAGAGAUCAACAAAGCGUGGCAAAGUGACUGUGGCUAGACUGCC | 0.63
49 | GGCAGAGCUCAACACAGCGUGCCAAAGAUGCUGUGGCUAGACUGCC | 0.68
50 | GGCAGAACUCAACACAGCGUUGCAAAGUGGCUGUUGCUAGACUGCC | 0.21
51 | GGCAGAGCUCAAUACAGCGUUGCAAAGUGGCUGUGACUAGACUGCC | 0.92
52 | GGCAGAGCUUAACACCGCGUGGCAAAUUCGCUGUGGCUAUACUGCC | 0.02
53 | GGCCGAGCUCAACACAGUGUGGCAGGGUGUCUGUGGCUAGACUGCC | 0.02
54 | GGCAGAACUCACCAUAGCGUGGCAAAGUGGCUGUGGCUAGACUGUC | 0.04
55 | GGCAGAGCUCAACACCGCGUGGCAAAGUGGCUCCGGCUAUACUGCC | 0.01
56 | GGCACAGCUCAACAAAGCGUGGCAAAAUGGCUGUGGCUAGACUGCC | 0.03
57 | GGCAGAGCUCAACACGGCGUGGCCAAGUGGCUGUGGCUACACUGCC | 0
58 | UGCAGAGCGCAACACAGCGUGGAAAAGUGGCUAUGGCUACACUGCC | 0.01
59 | UGCAGAACUGAACACAGCGUCGCUAAGUGGCUGUGGCUAGACCGUC | 0
60 | GUCAGAGCUCAACAUAGCGUGGCAAGGUGGCUGUGGCUAGACUGCC | 0.02
61 | GGCAGGGCUCGACACAUCGUGGCAAAGUGGCUGUGGCUAGACUACC | 0.01
62 | GGCAGAGCUUGACACAGCGUGGCAGAGUGGCUGUAGCUAGACUGCC | 0.01
63 | GGCAGAGCUAAACACAUCGUGUAAAAGUGGCUGUGGCUAGACUGCC | 0.09
64 | GGAAGAGCUCAACAGAGCGUGGCACAGUUGAUGUGGCUAGACUGCC | 0.24
65 | GGCAGAGCUCAACACAGCGGGGCAAAAUGGCUGUGGCUAGACUCCC | 0.33
66 | GCGAGAUCUCAACACAGCGUGGCAAAGUGGCUGUGGCUAGACUGCG | 0.12
67 | GGCAGAGCUAACCACAGCGUGGCAAAGUGGCUGUGGCUAGACAGCC | 0.02
68 | GGCAGAGCGCAACACAGCGUCGCAAAGUGGCUGUGGCUAGACUGCG | 0.08
69 | GGCAGGGCUCAACAAAGCGUGGCAAAGAGGCUGUGGCUAGACUGUC | 0.02

Row | Variant | self-cleavage
70 | GGCAGAGCUCUACACAGCGUGACAAAGAGGCUGUGGCUAGAGUGCC | 0
71 | GGCAGAGCUCAACACAGCGUGGCAAAGUGGCCGUGUCUAGACUACC | 0.04
72 | GGCAAAGCUCAUCACAGCGUGGCACAGUGGCUGUGACUACAUCGCC | 0.01
73 | GGAAGAGCUCAACGCAGCGUGGCAAAGUGGGUGUGGCUAGACUGCC | 0.09
74 | GGCAGAGGUAAACACAGCGUGGCAAAAUGGCUCUGGCUAGACUGCC | 0.02
75 | GGCAGAAUUCAACACAGCGUGGCAAAGUGGCUGUGGCUAGACUGCU | 0.37
76 | GGCAGAGGUGAACACAGCGUGGCAAAGUGGCUGUGGCUAGUCUGCC | 0.02
77 | GGCAGAGCUCAACACAGCGUGGCAAAGAGGCUGUGACUAUGCUGCA | 0.29
78 | GGCAGUGCUCAACAGAGCGUGGCAAAGUGGCUAUGGGUAUACUGCC | 0.01
79 | GGCAGAGCUCAACUCAGCGUGGCAAAGUGGCUGUGGCUAGAUUGCA | 0.04
80 | GGCAGAGCUCGACACAGCGUGCCAAAGUGGCUGUGGCUAGACUGCA | 0.01
81 | CGUAGAGCUCAACGCAGCGUGACAAAGUGGCUGUGGCUAGACUGCC | 0.2
82 | GGCAGAGCUCAACACAUAGGGGCAAAGUUGCCGUGGCGAGACUGCC | 0.02
83 | GGCAGAGCGUAACAUAACGGGGCAAAGUGGCCGUGGAUUGACUGAC | 0.02
84 | GGCACAGCCCAACACAGCGUGGCAAAGUAGCUGCGGCUAGACUGCC | 0.03
85 | GGCAGAGCUCAACACAGCGUGGCAAAGUGGCUGUGGCCGGACUGCA | 0.17
86 | GGCAGAGCUCCACACAGCCUGGAAAAGUGGCUGUGGCUUGGCUGCU | 0.03
87 | GGCAGAGCUCAACACAGAAUGGCAAAGUGGCUGUGGCUAGACUGCA | 0.89
88 | GGCAGAUCUCAACACAUCGUGGAAAAGUGGCUGUGGCUAGACUGCC | 0.46
89 | GGGAGAGUUCAAGACAGCGUAGCAAAGUGGCUUUGGCUAGACUGCC | 0.66
90 | GGCAGAGCUCAACACAGCGUGGCAUACUGGCUGUGGCUAGAUAGCC | 0.07
91 | GGCAGAGCUCAACAAAGCGUGUCAAAGUGGCUGUGGCUAGACUGCU | 0.1
92 | GGCAGAGCUAAACACAGCGCGGCGAAGUGGCUGUGGCUAGACUGCC | 0.03

Row | Variant | self-cleavage
93 | GGCAGAGCUCAACACAGCGUGGCACAGUUGCUGUGCCUAGACUGCC | 0.05
94 | GGCAGACCUCAACACAGGGUGGCAAAGAGGCUGUGGCUAGACUGCC | 0.03
95 | GGCAGAGCUCAACACAGCAUGGCAAAGUUUCGGUGGCUAGACUGCC | 1.21
96 | GGCAGAGUUCCACACAGCGUGGCGAAGUGGCUGUGGCUAGACUGCC | 0.02
97 | GGCAUAGCUCGACCCAGCGUGGCCACGUGGCUGUGGCUUGACUGCC | 0.02
98 | GGCAGAGCUAAACACAGCGUGGCAAAGUGGCUGUGGCUAGACUACA | 0.06
99 | GGCAGAGCUCAUCACAGCGUGGCAGAGUGGCUGUGGCUAUACUGCC | 0.02
100 | GGCGGAGCUCUACACAGCGUGGCAAAGUGGCUGUGGAAAGACUGCC | 0.02
101 | GGCAGAGCUGAACACUUCGUGGCAGAGUGGCUGUGGCUAGACUGCC | 0.03
102 | AGAAGAGCCCAACACAACGUGGCAAACUGGCUGUGGCUAGACUGCC | 0.15
103 | GGCAGAGCACAACACAUCGUAGAAAAGGCGCUGUGGCAAGACUGCC | 0.14
104 | GUCAGAGUUCAACAGAGCGUGGCAAAGUGGCUGUGGCUAGACUGCC | 0.01
105 | GGCAGAGCUUAACACAGGGUGGUAAAGUGGCUGUGGCUAGACUGCC | 0.15
106 | GGCACAGCUCAAUUCAGCGUGGCAAAGUGGCUGAGGCUAGACUGCC | 0.06
107 | GGUAGAGCUCAACACAGCGUGACAAAGUGGCUGUGGCUAGUCUGCC | 1.64
108 | GGCAGAGCCCAACACAGUGUGGUAAAGCGGCUGCGGCUAUACUACC | 0.02
109 | GGCAGAGCACAACACAGCGUGGCAAAGCGGCUGUGGUUAAACUGCG | 1.02
110 | AGCAGAGCUCAACACAGCGUGGCAAUGUGGCUAUGGCUAGACUGCC | 0.03
111 | GGCAGAGCGCUACACAGCGUGACAAGGUGGCUGUGGCUAGACUGCC | 0.01
112 | GGCAGAGCUCAAAACAAAGUGGCAAAGUGGCUGUGGCUAGACUGCA | 0.05
